From paper PMC8340461 come the findings set out here.

Protein sequences, listed by entry. Tags and fused reporters are not part of them. Lines headed by an entry give the natural chain unless they say otherwise; changes in a name come on top.
UniProt O43791: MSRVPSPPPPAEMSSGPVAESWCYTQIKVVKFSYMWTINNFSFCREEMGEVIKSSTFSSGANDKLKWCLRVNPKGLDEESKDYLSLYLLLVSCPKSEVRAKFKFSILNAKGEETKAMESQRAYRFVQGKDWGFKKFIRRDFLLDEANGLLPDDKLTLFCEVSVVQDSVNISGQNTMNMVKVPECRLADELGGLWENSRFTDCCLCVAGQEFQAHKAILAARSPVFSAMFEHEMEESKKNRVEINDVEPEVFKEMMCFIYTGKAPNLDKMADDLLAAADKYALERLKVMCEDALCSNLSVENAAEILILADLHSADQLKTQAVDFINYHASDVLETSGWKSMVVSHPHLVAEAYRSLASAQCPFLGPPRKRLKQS

Results are given in words; binding and its absence hold for the method and conditions named. In cells and extracts the contact can be indirect. Some results given as binding are weak or reduced against the parent protein; the word gives no strength. Tags and fused reporters may be left off the sequences shown.

Assay [1] concerns the target GST-SPOP (speckle-type POZ protein), wild type (UniProt O43791). The experiment in a line: condition: only cells treated with the GSK3β inhibitor CHIR-99021 (10 μM) for 10 h; pull-down; GST pull-down from whole cell lysates of transfected HEK293T cells treated with the GSK3β inhibitor CHIR-99021 (10 μM) for 10 h before harvest (Fig. 4E).
The target is the same in assay [2]. The experiment in a line: pull-down; GST pull-down from whole cell lysates of co-transfected HEK293T cells (Fig. 2B, 4A, 4E, 5D, 6B), immunoblot; MG132 (10 μM) for 10 h before harvest in Fig. 2B and 5D; λ-phosphatase on the lysates in Fig. 4A (interaction dramatically reduced); GSK3β-S9A co-expressed in Fig. 4E (interaction enhanced). On the technique in general: In western blotting, separated proteins are transferred to a membrane and probed.

Assay [3] deals with GST-SPOP F102C (UniProt O43791). Described as above.
Assay [4] concerns the target GST-SPOP F133V (UniProt O43791). Described as above.
Assay [5] concerns the target GST-SPOP Y87C (UniProt O43791). The assay is described as above.
Substrate in assay [6]: SPOP (speckle-type POZ protein), wild type, tag not shown (UniProt O43791)
The experiment in a line: co-IP; immunoprecipitation from whole cell lysates of transfected HEK293T cells (EBC buffer; washed with NETN buffer), immunoblot (Fig. 3B, 4N, 4O); MG132 (10 μM) for 10 h in Fig. 3B; Myc-CK1δ co-expressed in Fig. 4N-O.

B1: Flag-PDK1 (3-phosphoinositide-dependent protein kinase-1), wild type (protein, UniProt O15530 1-556)
chain: MARTTSQLYDAVPIQSSVVLCSCPSPSMVRTQTESSTPPGIPGGSRQGPAMDGTAAEPRPGAGSLQHAQPPPQPRKKRPEDFKFGKILGEGSFSTVVLARELATSREYAIKILEKRHIIKENKVPYVTRERDVMSRLDHPFFVKLYFTFQDDEKLYFGLSYAKNGELLKYIRKIGSFDETCTRFYTAEIVSALEYLHGKGIIHRDLKPENILLNEDMHIQITDFGTAKVLSPESKQARANSFVGTAQYVSPELLTEKSACKSSDLWALGCIIYQLVAGLPPFRAGNEYLIFQKIIKLEYDFPEKFFPKARDLVEKLLVLDATKRLGCEEMEGYGPLKAHPFFESVTWENLHQQTPPKLTAYLPAMSEDDEDCYGNYDNLLSQFGCMQVSSSSSSHSLSASDTGLPQRSGSNIEQYIHDLDSNSFELDLQFSEDEKRLLLEKQAGGNPWHQFVENNLILKMGPVDKRKGLFARRRQLLLTEGPHLYYVDPVNKVLKGEIPWSQELRPEAKNFKTFFVHTPNRTYYLMDPSGNAHKWCRKIQEVWRQRYQSHPDAAVQ
With B1, the binding result is reported as “no binding” in assay [1]; “binds” in assay [2]; “no binding” in assay [3]; “no binding” in assay [4]; “no binding” in assay [5].

B2: PDK1 S390L (protein, UniProt O15530 1-556)
chain: MARTTSQLYDAVPIQSSVVLCSCPSPSMVRTQTESSTPPGIPGGSRQGPAMDGTAAEPRPGAGSLQHAQPPPQPRKKRPEDFKFGKILGEGSFSTVVLARELATSREYAIKILEKRHIIKENKVPYVTRERDVMSRLDHPFFVKLYFTFQDDEKLYFGLSYAKNGELLKYIRKIGSFDETCTRFYTAEIVSALEYLHGKGIIHRDLKPENILLNEDMHIQITDFGTAKVLSPESKQARANSFVGTAQYVSPELLTEKSACKSSDLWALGCIIYQLVAGLPPFRAGNEYLIFQKIIKLEYDFPEKFFPKARDLVEKLLVLDATKRLGCEEMEGYGPLKAHPFFESVTWENLHQQTPPKLTAYLPAMSEDDEDCYGNYDNLLSQFGCMQVSLSSSSHSLSASDTGLPQRSGSNIEQYIHDLDSNSFELDLQFSEDEKRLLLEKQAGGNPWHQFVENNLILKMGPVDKRKGLFARRRQLLLTEGPHLYYVDPVNKVLKGEIPWSQELRPEAKNFKTFFVHTPNRTYYLMDPSGNAHKWCRKIQEVWRQRYQSHPDAAVQ
For B2, the binding entry in assay [2] is “no binding”.

B3: PDK1 Q387R (protein, UniProt O15530 1-556)
chain: MARTTSQLYDAVPIQSSVVLCSCPSPSMVRTQTESSTPPGIPGGSRQGPAMDGTAAEPRPGAGSLQHAQPPPQPRKKRPEDFKFGKILGEGSFSTVVLARELATSREYAIKILEKRHIIKENKVPYVTRERDVMSRLDHPFFVKLYFTFQDDEKLYFGLSYAKNGELLKYIRKIGSFDETCTRFYTAEIVSALEYLHGKGIIHRDLKPENILLNEDMHIQITDFGTAKVLSPESKQARANSFVGTAQYVSPELLTEKSACKSSDLWALGCIIYQLVAGLPPFRAGNEYLIFQKIIKLEYDFPEKFFPKARDLVEKLLVLDATKRLGCEEMEGYGPLKAHPFFESVTWENLHQQTPPKLTAYLPAMSEDDEDCYGNYDNLLSQFGCMRVSSSSSSHSLSASDTGLPQRSGSNIEQYIHDLDSNSFELDLQFSEDEKRLLLEKQAGGNPWHQFVENNLILKMGPVDKRKGLFARRRQLLLTEGPHLYYVDPVNKVLKGEIPWSQELRPEAKNFKTFFVHTPNRTYYLMDPSGNAHKWCRKIQEVWRQRYQSHPDAAVQ
As for B3, the binding entry in assay [2] was “no binding”.

B4: PDK1 Q387H (protein, UniProt O15530 1-556)
chain: MARTTSQLYDAVPIQSSVVLCSCPSPSMVRTQTESSTPPGIPGGSRQGPAMDGTAAEPRPGAGSLQHAQPPPQPRKKRPEDFKFGKILGEGSFSTVVLARELATSREYAIKILEKRHIIKENKVPYVTRERDVMSRLDHPFFVKLYFTFQDDEKLYFGLSYAKNGELLKYIRKIGSFDETCTRFYTAEIVSALEYLHGKGIIHRDLKPENILLNEDMHIQITDFGTAKVLSPESKQARANSFVGTAQYVSPELLTEKSACKSSDLWALGCIIYQLVAGLPPFRAGNEYLIFQKIIKLEYDFPEKFFPKARDLVEKLLVLDATKRLGCEEMEGYGPLKAHPFFESVTWENLHQQTPPKLTAYLPAMSEDDEDCYGNYDNLLSQFGCMHVSSSSSSHSLSASDTGLPQRSGSNIEQYIHDLDSNSFELDLQFSEDEKRLLLEKQAGGNPWHQFVENNLILKMGPVDKRKGLFARRRQLLLTEGPHLYYVDPVNKVLKGEIPWSQELRPEAKNFKTFFVHTPNRTYYLMDPSGNAHKWCRKIQEVWRQRYQSHPDAAVQ
With B4, the binding result in assay [2] was “no binding”.

B5: PDK1 (3-phosphoinositide-dependent protein kinase-1), wild type, tag not shown (protein, UniProt O15530 1-556)
chain: MARTTSQLYDAVPIQSSVVLCSCPSPSMVRTQTESSTPPGIPGGSRQGPAMDGTAAEPRPGAGSLQHAQPPPQPRKKRPEDFKFGKILGEGSFSTVVLARELATSREYAIKILEKRHIIKENKVPYVTRERDVMSRLDHPFFVKLYFTFQDDEKLYFGLSYAKNGELLKYIRKIGSFDETCTRFYTAEIVSALEYLHGKGIIHRDLKPENILLNEDMHIQITDFGTAKVLSPESKQARANSFVGTAQYVSPELLTEKSACKSSDLWALGCIIYQLVAGLPPFRAGNEYLIFQKIIKLEYDFPEKFFPKARDLVEKLLVLDATKRLGCEEMEGYGPLKAHPFFESVTWENLHQQTPPKLTAYLPAMSEDDEDCYGNYDNLLSQFGCMQVSSSSSSHSLSASDTGLPQRSGSNIEQYIHDLDSNSFELDLQFSEDEKRLLLEKQAGGNPWHQFVENNLILKMGPVDKRKGLFARRRQLLLTEGPHLYYVDPVNKVLKGEIPWSQELRPEAKNFKTFFVHTPNRTYYLMDPSGNAHKWCRKIQEVWRQRYQSHPDAAVQ
As to B5, the binding result in assay [6] is on record as “binds”.

B6: PDK1 S398L (protein, UniProt O15530 1-556)
chain: MARTTSQLYDAVPIQSSVVLCSCPSPSMVRTQTESSTPPGIPGGSRQGPAMDGTAAEPRPGAGSLQHAQPPPQPRKKRPEDFKFGKILGEGSFSTVVLARELATSREYAIKILEKRHIIKENKVPYVTRERDVMSRLDHPFFVKLYFTFQDDEKLYFGLSYAKNGELLKYIRKIGSFDETCTRFYTAEIVSALEYLHGKGIIHRDLKPENILLNEDMHIQITDFGTAKVLSPESKQARANSFVGTAQYVSPELLTEKSACKSSDLWALGCIIYQLVAGLPPFRAGNEYLIFQKIIKLEYDFPEKFFPKARDLVEKLLVLDATKRLGCEEMEGYGPLKAHPFFESVTWENLHQQTPPKLTAYLPAMSEDDEDCYGNYDNLLSQFGCMQVSSSSSSHSLLASDTGLPQRSGSNIEQYIHDLDSNSFELDLQFSEDEKRLLLEKQAGGNPWHQFVENNLILKMGPVDKRKGLFARRRQLLLTEGPHLYYVDPVNKVLKGEIPWSQELRPEAKNFKTFFVHTPNRTYYLMDPSGNAHKWCRKIQEVWRQRYQSHPDAAVQ
For B6, the binding result in assay [2] is given as “no binding”.

B7: PDK1 S394L (protein, UniProt O15530 1-556)
chain: MARTTSQLYDAVPIQSSVVLCSCPSPSMVRTQTESSTPPGIPGGSRQGPAMDGTAAEPRPGAGSLQHAQPPPQPRKKRPEDFKFGKILGEGSFSTVVLARELATSREYAIKILEKRHIIKENKVPYVTRERDVMSRLDHPFFVKLYFTFQDDEKLYFGLSYAKNGELLKYIRKIGSFDETCTRFYTAEIVSALEYLHGKGIIHRDLKPENILLNEDMHIQITDFGTAKVLSPESKQARANSFVGTAQYVSPELLTEKSACKSSDLWALGCIIYQLVAGLPPFRAGNEYLIFQKIIKLEYDFPEKFFPKARDLVEKLLVLDATKRLGCEEMEGYGPLKAHPFFESVTWENLHQQTPPKLTAYLPAMSEDDEDCYGNYDNLLSQFGCMQVSSSSSLHSLSASDTGLPQRSGSNIEQYIHDLDSNSFELDLQFSEDEKRLLLEKQAGGNPWHQFVENNLILKMGPVDKRKGLFARRRQLLLTEGPHLYYVDPVNKVLKGEIPWSQELRPEAKNFKTFFVHTPNRTYYLMDPSGNAHKWCRKIQEVWRQRYQSHPDAAVQ
Consider B7, for which the binding entry in assay [2] was “no binding”.
